Source: PubChem BioAssay AID504339 (National Center for Advancing Translational Sciences (NCATS), 2011)
Values joined by “and” are separate entries in the source; they are usually repeats but may differ in a detail not shown here. Equal values may be shown once. Among all 390,000 compounds or so, about 17,000 (4.4%) were called active. The shares of active, inactive and inconclusive entries below differ from those in the screen. Calls follow the shape of the dose curve; as a rule, active = well fitted inhibition curve with a large enough effect; inconclusive = small, poorly fitted or top-dose-only effect; inactive = no such curve, though single readings can be large or run the other way. Potencies beside an inconclusive call are fits to weak or partial responses and may not hold up.

molecular target: Lysine-specific demethylase 4A (Homo sapiens) (UniProt O75164); assay: qHTS Assay for Inhibitors of JMJD2A-Tudor Domain; conditions: AlphaScreen JMJD2A-Tudor / H3K4me3 peptide binding; activity change, negative = inhibition: at 114 µM (top of the series); also: nearly all actives have a fitted effect of over 50% in size
% is scaled to controls: 0 for no effect and ±100 for the full control effect; potency is read from the fitted curve at half-maximal effect; tags tell the direction and shape of the fitted curve.

Sequence of UniProt O75164 (O75164 whole entry, looked up, the tested form may be a part): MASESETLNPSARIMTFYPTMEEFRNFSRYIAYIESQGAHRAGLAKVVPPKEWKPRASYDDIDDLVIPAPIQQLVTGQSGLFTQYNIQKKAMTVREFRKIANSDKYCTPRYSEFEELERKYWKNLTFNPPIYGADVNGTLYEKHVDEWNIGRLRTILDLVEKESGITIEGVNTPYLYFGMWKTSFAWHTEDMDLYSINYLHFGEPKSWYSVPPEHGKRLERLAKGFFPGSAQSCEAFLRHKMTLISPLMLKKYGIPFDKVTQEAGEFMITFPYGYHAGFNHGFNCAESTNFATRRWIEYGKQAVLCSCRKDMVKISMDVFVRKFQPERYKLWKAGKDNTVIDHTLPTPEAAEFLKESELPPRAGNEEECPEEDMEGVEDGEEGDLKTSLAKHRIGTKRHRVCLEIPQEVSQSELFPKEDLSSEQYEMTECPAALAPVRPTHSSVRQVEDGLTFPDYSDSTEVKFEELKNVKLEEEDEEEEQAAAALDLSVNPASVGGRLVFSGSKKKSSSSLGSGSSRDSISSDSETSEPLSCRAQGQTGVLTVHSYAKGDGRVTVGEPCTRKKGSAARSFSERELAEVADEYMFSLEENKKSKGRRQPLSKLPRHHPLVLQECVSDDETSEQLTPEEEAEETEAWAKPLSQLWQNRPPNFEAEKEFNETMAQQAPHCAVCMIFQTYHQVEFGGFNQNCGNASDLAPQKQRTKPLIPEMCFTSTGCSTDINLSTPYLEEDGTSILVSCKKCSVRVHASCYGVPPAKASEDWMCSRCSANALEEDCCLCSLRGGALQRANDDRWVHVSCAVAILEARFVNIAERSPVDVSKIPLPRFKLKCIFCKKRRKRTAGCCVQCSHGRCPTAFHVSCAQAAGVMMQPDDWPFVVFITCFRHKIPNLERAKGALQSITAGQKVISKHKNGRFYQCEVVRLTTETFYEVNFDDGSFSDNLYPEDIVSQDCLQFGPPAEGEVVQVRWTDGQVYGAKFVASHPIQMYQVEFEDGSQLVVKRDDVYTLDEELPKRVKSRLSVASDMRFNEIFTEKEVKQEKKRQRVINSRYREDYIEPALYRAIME

Compound | activity change, negative = inhibition | Potency
COc1ccccc1NC(=O)COC(=O)c1ccc([N+](=O)[O-])s1 | inconclusive: -44.9% [inhibitor] | 
O=[N+]([O-])c1cc(Cl)c2cccnc2c1O |  | active: 20 µM
CCOC(=O)C1=C(C)N=c2s/c(=C\c3ccncc3)c(=O)n2C1c1ccc2c(c1)OCO2 (configuration not stated) |  | inconclusive: 50.1 µM [inhibitor, partial curve]
CN=C(Cc1ccccc1)C1=C(O)CC(C)(C)CC1=O | inactive: -8.77% | 
Cc1ccccc1NC(=O)Nc1nnc(N2CCCCCC2)s1 | inactive: -6.95% | 
CSCc1c(C(=O)OCC(=O)c2ccc[nH]2)oc2ccccc12 | inactive: -25.5% | 
O=C(C1CCN(S(=O)(=O)c2ccc(-n3cnnn3)cc2)CC1)N1CCCCC1 |  | inconclusive: 100 µM [inhibitor, single point]
O=C(CN1CCN(Cc2ccccc2)CC1)N1CCCc2ccccc21 |  | active: 4.47 µM
CN(Cc1cn(C)nc1-c1ccc(Oc2ccccc2)cc1)Cc1cnc2ccccn12 |  | inconclusive: 28.2 µM [inhibitor, partial curve]
COc1ccc(/C=N/Nc2nc(-c3ccc(C)cc3)c(NC(C)=O)s2)cc1 |  | active: 56.2 µM
Cn1c(N2CCN(c3ccccn3)CC2)nc2c1c(=O)n(Cc1ccc(Cl)cc1)c(=O)n2C |  | inconclusive: 56.2 µM [inhibitor, partial curve]
CCC(C(=O)OCc1cc(=O)n2nc(C)sc2n1)c1ccccc1 (configuration not stated) | inactive: -8% | 
CCc1ccc(CCC(=O)N2CCN(S(=O)(=O)c3sc(C(=O)O)c(C)c3C(=O)O)CC2)cc1 |  | inconclusive: 39.8 µM [inhibitor, full curve, poor fit]
CCOC(=O)Nc1ccc2c(c1)N(C(=O)OCCN(C)C)c1ccccc1CC2 |  | inconclusive: 31.6 µM [inhibitor, partial curve] and inconclusive: 79.4 µM [inhibitor, partial curve]
CCOC(=O)C1=C(O)/C(=C\c2cc(C)n(-c3ccccc3F)c2C)N=C1C |  | inconclusive: 25.1 µM [inhibitor, single point]
CCN=C1NN=C(c2cc(C)n(Cc3ccco3)c2C)CS1 |  | inconclusive: 12.6 µM [inhibitor, partial curve]
COc1ccc(OC)c(NC(=O)c2c(NCc3sccc3C)sc3c2CCCCC3)c1 |  | inconclusive: 39.8 µM [inhibitor, partial curve]
COc1ccc(O)c(/C=c2/sc3nc4cc(C)c(C)cc4n3c2=O)c1 |  | inconclusive: 10 µM [inhibitor, partial curve]
COc1ccc(S(=O)(=O)Nc2ccccc2OC)cc1NC(=O)Cc1cccs1 |  | inconclusive: 39.8 µM [inhibitor, single point]
COc1ccc2sc(N(Cc3cccnc3)C(=O)c3ccc4c(c3)OCCO4)nc2c1 |  | inconclusive: 28.2 µM [inhibitor, partial curve]
C=CCN1C(=O)C(O)(CC(=O)c2ccc(Cl)cc2)c2ccccc21 (configuration not stated) |  | inconclusive: 44.7 µM [inhibitor, partial curve]
O=C(Nc1nc(=O)c2ccccc2s1)c1ccc(F)cc1 |  | inconclusive: 63.1 µM [inhibitor, partial curve, poor fit]
CC(=O)N1CCc2cc(S(=O)(=O)CCC(=O)N(C)Cc3ccco3)ccc21 | inactive: -0.694% | 

Compound | activity change, negative = inhibition | Potency
CCOC(=O)c1c(NC(=O)C(C)Sc2nnc(C)c(=O)[nH]2)sc2c1CCCC2 (configuration not stated) | inactive: -19.1% | 
COc1ccc(-c2c(C(=O)O)nc3ccccc3c2C(=O)O)cc1 |  | active: 25.1 µM
O=C(Nc1ccc(OC(=O)c2ccco2)cc1)c1ccco1 |  | inconclusive: 89.1 µM [inhibitor, single point]
Cc1ccc(NC(=O)CN2CCN(C)CC2)cc1Br |  | active: 5.62 µM
CCOc1ccccc1C=NN1CCCCCC1 |  | active: 44.7 µM
Cc1ccc(C)c(N2CCN(c3ncnc4c3cnn4-c3ccccc3)CC2)c1 |  | inconclusive: 44.7 µM [inhibitor, partial curve]
c1ccc(CCn2nnnc2CN2CCN(C3CCCC3)CC2)cc1 |  | inconclusive: 89.1 µM [inhibitor, single point]
Cc1cccc(-n2cc(-c3ccccc3)c3c(N4CCOCC4)ncnc32)c1 | inconclusive: -41.7% [inhibitor] | 
COc1ccccc1/C=C/C=N/NC(=O)c1cccs1 | inactive: -16.6% | 
O=C(Nc1nc(-c2cccnc2)cs1)c1ccccc1F |  | inconclusive: 89.1 µM [inhibitor, single point]
CCCCSc1nc2sc3c(c2c(=O)n1-c1ccc(OC)cc1)CCN(C)C3 |  | inconclusive: 15.8 µM [inhibitor, full curve, poor fit]
COc1ccc(C2CC(=O)Oc3c(C(CCN4CCOCC4)c4cc(OC)c(OC)c(OC)c4)c(OC)cc(OC)c32)cc1 (configuration not stated) |  | inconclusive: 50.1 µM [inhibitor, partial curve] and inconclusive: 56.2 µM [inhibitor, partial curve]
O=C(NNC(=O)c1cc2cc3ccccc3nc2s1)c1cccc(Cl)c1 |  | active: 50.1 µM
CCn1cc(C(=O)NCc2ccco2)c(=O)c2cc(S(=O)(=O)N3CCc4ccccc4C3)ccc21 |  | inconclusive: 56.2 µM [inhibitor, partial curve]
O=C(CSc1ccc(-c2ccco2)nn1)c1ccccc1 |  | inconclusive: 14.1 µM [inhibitor, full curve, poor fit]
NC(=S)Nc1cccc(O)c1 | inactive: -4.93% | 
COc1cccc(Cn2c(Oc3cc(C)cc(C)c3)nc3c2c(=O)n(C)c(=O)n3C)c1 | inactive: -18.7% | 
COC(=O)c1c(N)sc2c1CCN(c1ncc(C(F)(F)F)cc1Cl)C2 |  | inconclusive: 100 µM [inhibitor, partial curve, poor fit]
CSCC[C@H](NC(=O)[C@@H]1Cc2ccccc2CN1)C(=O)Nc1ccc2c(c1)OCO2 |  | inconclusive: 25.1 µM [inhibitor, full curve]
COc1ccc(CC(=O)N2CCc3cc(OC)c(OC)cc3C2COc2cc(C)cc(C)c2)cc1OC (configuration not stated) |  | inconclusive: 50.1 µM [inhibitor, partial curve]
COc1ccc2[nH]c3c(c2c1)CCN1C(=O)C(CC(=O)NCCC2=CCCCC2)C[C@H](C(=O)N(C(C)C)C(C)C)[C@@]31C (some centres not stated) |  | inconclusive: 39.8 µM [inhibitor, partial curve]
CCc1cc(=O)oc2cc(OCC(=O)NCCCn3ccnc3)c(Cl)cc12 | inactive: -6.94% | 
CCOC(=O)c1ccc(N2C(=O)c3n[nH]c(-c4ccco4)c3C2c2ccc(C)cc2)cc1 (configuration not stated) |  | inconclusive: 11.2 µM [inhibitor, full curve]

Compound | activity change, negative = inhibition | Potency
N#Cc1nc(COc2ccccc2Cl)oc1NCc1ccco1 |  | inconclusive: 22.4 µM [inhibitor, full curve]
CCOC(=O)N1CCN(C(=O)c2cc3n(n2)C(C(F)(F)F)CC(c2ccc4c(c2)OCO4)N3)CC1 (configuration not stated) | inactive: -15.3% | 
CCN(CC)S(=O)(=O)c1ccc(N2CCN(c3cccc(OC)c3)CC2)c([N+](=O)[O-])c1 |  | inconclusive: 8.91 µM [inhibitor, full curve]
O=C(CCn1cccc1)NCc1ccc2c(c1)OCO2 |  | inconclusive: 56.2 µM [inhibitor, partial curve]
O=C(Cn1cc(C(=O)C(F)(F)F)c2ccccc21)Nc1ccccc1F |  | inconclusive: 100 µM [inhibitor, single point]
Cc1ccc2nc(/C(C#N)=C/c3ccc(-c4cccc([N+](=O)[O-])c4)o3)[nH]c2c1 |  | inconclusive: 50.1 µM [inhibitor, partial curve, poor fit]
O=C(Cn1cnc2sc3c(c2c1=O)CCCC3)NCC(=O)Nc1c(F)cccc1F |  | inconclusive: 39.8 µM [inhibitor, full curve, poor fit]
Cc1ccc(Nc2c(-c3ccccc3O)nc3cnccn23)cc1 |  | inconclusive: 56.2 µM [inhibitor, partial curve, poor fit]
C=CCn1c(C)cc(-c2csc(NCC)n2)c1C |  | active: 50.1 µM
Cc1cc(C2=NNC(=NC3CC3)SC2)c(C)n1-c1ccccc1 |  | inconclusive: 79.4 µM [inhibitor, single point]
CCC(C)Sc1nc2c(c(=O)[nH]c(=O)n2C)n1C (configuration not stated) |  | inconclusive: 20 µM [inhibitor, partial curve]
O=[N+]([O-])c1ccc(N2CCCC2)cc1N1CCCC1 |  | active: 44.7 µM
O=C1CC(NS(=O)(=O)c2cccnc2)CN1c1cccc(F)c1 (configuration not stated) | inactive: 1.03% | 
COc1ccc(OC)c(Nc2nc(-c3cccs3)cs2)c1 |  | inconclusive: 44.7 µM [inhibitor, partial curve]
CC1(C)CC(=O)C/C(=N\NC(=O)c2cccs2)C1 |  | inconclusive: 28.2 µM [inhibitor, single point]
CCOc1ccc(/C(O)=C2/C(=O)C(=O)N(CCOCCO)C2c2cccnc2)cc1 (configuration not stated) |  | active: 79.4 µM
COc1ccc2nc3cc([N+](=O)[O-])ccc3c(NNc3ccc([N+](=O)[O-])cc3)c2c1 |  | inconclusive: 17.8 µM [inhibitor, partial curve]
Cn1nnnc1SCCCNCc1cc(Cl)ccc1OCc1ccc(F)cc1 | inactive: -26.2% | 
O=C(O)CC1S/C(=N/N=C/c2ccc(-c3ccccc3[N+](=O)[O-])o2)NC1=O (configuration not stated) |  | inconclusive: 56.2 µM [inhibitor, partial curve]
Cc1c(C(=O)Nc2ccc(C(=O)O)cc2)nnn1-c1ccccc1 |  | inconclusive: 79.4 µM [inhibitor, single point]
O=C(Nc1nc2n(n1)C(c1ccc(F)cc1)C=C(c1ccccc1)N2)c1ccco1 (configuration not stated) | inactive: -18.2% | 
